Source: the supplement of paper PMC7826260
This is one part of the list. Viral Rep nickase domains cut single-stranded DNA in vitro (3 µM enzyme, 1 h, 37 °C); shown is the middle of each 90-letter strand. Uncut reads are compared with the no-enzyme pool on a log2 scale; more negative means more cut, near 0 not cut, and no call is made. Because reads are shares of a total, they shift together; values above 0 arise when much of the pool is cut.

These sequences were tested on T1, Rep nickase domain of Muscovy duck circovirus (assay: uncleaved DNA left, log2 of reads against the no-enzyme library (log2 ratio); higher = less cleavage (more negative = more Rep cleavage of the k-mer); sequences stand for … in CTCGTCCG…ACCGGAGA).
T1 sequence (residues 1-111, tag not shown): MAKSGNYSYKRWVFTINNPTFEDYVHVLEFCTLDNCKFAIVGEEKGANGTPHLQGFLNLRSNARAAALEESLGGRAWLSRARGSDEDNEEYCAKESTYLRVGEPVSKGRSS
Method: (§1)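 A pool of 90-nt single-stranded DNAs with seven random bases just before the constant AC of the nick site (name = the seven bases) was cut by 3 µM recombinant His6-SUMO-tagged Rep nickase domain (300 nM DNA, 50 mM HEPES pH 8.0, 50 mM NaCl, 1 mM MnCl2, 1 h, 37 °C, three replicates). Uncut DNA was amplified and sequenced.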

Sequence | uncleaved DNA left (log2)
TGCCATG | 0.0315
TCTACCA | -0.239
AATAAGA | 0.103
GGACTAA | 0.00258
GTGTAGC | 0.148
TCTGAGG | 0.186
TGAGGGG | 0.0143
GTTACGA | 0.0273
TTTCATG | -0.0319
CAATGGG | 0.073
TAAGGAG | 0.0697
CTATGAC | 0.18
ACTATAC | 0.129
TGAATTT | -0.00227
AGTTCCC | -0.0196
ACTACGT | -0.00237
CCGCACA | 0.0731
CCAACTC | 0.0113
ATGAAAG | 0.112
CCCACGC | 0.0256

Sequence | uncleaved DNA left (log2)
GATTGAG | 0.0759
GTAGCTA | 0.0188
GACGTTT | 0.00438
CATTAGC | -0.0292
ATAAAGA | -0.00892
CAATAGT | -3.79
ATGGCAC | 0.0775
GAAATAT | 0.0744
CTGAATA | 0.0679
ATTCGTT | -1.62
AACCACC | -0.143
TTCTAGC | 0.198
GGGTTCC | 0.0418
GATTTAA | 0.101
ACCTCAG | 0.122
TCGTAAC | 0.0822
TTGGTGT | 0.124
AGCCGAT | 0.0674
TCTCGGG | -0.0522
GACATGA | 0.0376

Each sequence was assayed on T2, Rep nickase domain of banana bunchy top virus in the same assay as above.
T2 sequence (residues 1-94, tag not shown): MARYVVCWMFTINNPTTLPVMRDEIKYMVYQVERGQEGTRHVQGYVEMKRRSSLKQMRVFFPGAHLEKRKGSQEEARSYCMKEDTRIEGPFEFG
Method: as §1

Sequence | uncleaved DNA left (log2)
TGCCATG | 0.0546
TCTACCA | -0.148
AATAAGA | 0.016
GGACTAA | -0.103
GTGTAGC | 0.0684
TCTGAGG | 0.123
TGAGGGG | -0.0549
GTTACGA | 0.109
TTTCATG | -0.166
CAATGGG | 0.00179
TAAGGAG | 0.0515
CTATGAC | 0.00757
ACTATAC | -0.155
TGAATTT | 0.000419
AGTTCCC | 0.0262
ACTACGT | -0.0009
CCGCACA | 0.0385
CCAACTC | -0.0347
ATGAAAG | 0.0599
CCCACGC | 0.00768

Sequence | uncleaved DNA left (log2)
GATTGAG | 0.0848
GTAGCTA | 0.0684
GACGTTT | -0.0265
CATTAGC | -0.0672
ATAAAGA | -0.0902
CAATAGT | -1.22
ATGGCAC | 0.0673
GAAATAT | 0.0451
CTGAATA | 0.118
ATTCGTT | -1.32
AACCACC | -0.0296
TTCTAGC | 0.0719
GGGTTCC | 0.15
GATTTAA | 0.0943
ACCTCAG | -0.0115
TCGTAAC | -0.0531
TTGGTGT | -0.144
AGCCGAT | 0.00765
TCTCGGG | -0.123
GACATGA | 0.0801

Each sequence was assayed on T3, Rep nickase domain of cabbage leaf curl virus in the same assay as above.
T3 sequence (residues 1-116, tag not shown): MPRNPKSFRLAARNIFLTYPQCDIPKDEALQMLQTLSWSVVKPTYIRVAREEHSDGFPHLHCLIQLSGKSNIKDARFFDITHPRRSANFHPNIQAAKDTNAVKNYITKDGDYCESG
Method: as §1

Sequence | uncleaved DNA left (log2)
TGCCATG | -0.24
TCTACCA | -0.197
AATAAGA | -0.025
GGACTAA | 0.848
GTGTAGC | 0.406
TCTGAGG | 0.494
TGAGGGG | 0.286
GTTACGA | 0.216
TTTCATG | -0.566
CAATGGG | -0.692
TAAGGAG | 0.078
CTATGAC | 0.0625
ACTATAC | -0.243
TGAATTT | 0.0767
AGTTCCC | 0.198
ACTACGT | 0.114
CCGCACA | -0.0804
CCAACTC | -0.082
ATGAAAG | -0.69
CCCACGC | 0.0499

Sequence | uncleaved DNA left (log2)
GATTGAG | -0.712
GTAGCTA | 0.25
GACGTTT | 0.227
CATTAGC | -0.665
ATAAAGA | -0.144
CAATAGT | -4.15
ATGGCAC | 0.0445
GAAATAT | -0.229
CTGAATA | -0.17
ATTCGTT | -0.33
AACCACC | -0.0885
TTCTAGC | -0.084
GGGTTCC | 0.722
GATTTAA | 0.325
ACCTCAG | -0.524
TCGTAAC | -0.102
TTGGTGT | -0.263
AGCCGAT | 0.105
TCTCGGG | 0.0264
GACATGA | 0.594

Each sequence was assayed on T4, Rep nickase domain of chickpea chlorotic dwarf virus in the same assay as above.
T4 sequence (residues 1-124, tag not shown): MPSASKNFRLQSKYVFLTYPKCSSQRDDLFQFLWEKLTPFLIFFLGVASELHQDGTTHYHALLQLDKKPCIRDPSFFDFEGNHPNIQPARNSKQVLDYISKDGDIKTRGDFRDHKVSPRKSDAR
Method: as §1

Sequence | uncleaved DNA left (log2)
TGCCATG | -0.306
TCTACCA | -2.48
AATAAGA | -0.422
GGACTAA | 1.82
GTGTAGC | 0.936
TCTGAGG | 1.33
TGAGGGG | 0.661
GTTACGA | 0.669
TTTCATG | -0.898
CAATGGG | -0.568
TAAGGAG | 1.03
CTATGAC | 0.158
ACTATAC | -0.831
TGAATTT | -2.48
AGTTCCC | 0.428
ACTACGT | -0.276
CCGCACA | -0.953
CCAACTC | -1.63
ATGAAAG | -0.359
CCCACGC | -0.237

Sequence | uncleaved DNA left (log2)
GATTGAG | 0.524
GTAGCTA | 0.776
GACGTTT | -0.899
CATTAGC | -0.798
ATAAAGA | -0.27
CAATAGT | -3.34
ATGGCAC | 0.0984
GAAATAT | -1.29
CTGAATA | -0.953
ATTCGTT | -2.02
AACCACC | -1.19
TTCTAGC | -0.395
GGGTTCC | 1.5
GATTTAA | 0.75
ACCTCAG | -0.629
TCGTAAC | -1.31
TTGGTGT | -0.469
AGCCGAT | 0.649
TCTCGGG | 0.185
GACATGA | 1.48

These sequences were tested on T5, Rep nickase domain of faba bean necrotic yellows virus in the same assay as above.
T5 sequence (residues 1-98, tag not shown): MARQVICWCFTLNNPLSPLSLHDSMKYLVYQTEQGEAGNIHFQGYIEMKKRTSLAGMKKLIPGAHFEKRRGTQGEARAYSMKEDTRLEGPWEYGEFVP
Method: as §1

Sequence | uncleaved DNA left (log2)
TGCCATG | -0.124
TCTACCA | -0.123
AATAAGA | 0.132
GGACTAA | -0.0579
GTGTAGC | 0.085
TCTGAGG | 0.0162
TGAGGGG | 0.123
GTTACGA | 0.0714
TTTCATG | -0.0377
CAATGGG | 0.0753
TAAGGAG | 0.151
CTATGAC | 0.155
ACTATAC | -0.0444
TGAATTT | 0.0158
AGTTCCC | -0.0224
ACTACGT | -0.0637
CCGCACA | -0.00811
CCAACTC | 0.0274
ATGAAAG | -0.025
CCCACGC | -0.0743

Sequence | uncleaved DNA left (log2)
GATTGAG | 0.0846
GTAGCTA | -0.0176
GACGTTT | 0.0612
CATTAGC | 0.075
ATAAAGA | -0.0154
CAATAGT | -0.11
ATGGCAC | 0.0173
GAAATAT | -0.0206
CTGAATA | 0.194
ATTCGTT | 0.0434
AACCACC | -0.0625
TTCTAGC | 0.116
GGGTTCC | -0.0453
GATTTAA | 0.146
ACCTCAG | -0.0223
TCGTAAC | -0.0311
TTGGTGT | 0.0196
AGCCGAT | -0.0293
TCTCGGG | -0.167
GACATGA | -0.0404
